Nine cell lines from the supplement of paper PMC4967469 can be followed below.

What all share (assay): Viability of human cancer cell lines after 72 h of drug (GDSC screen)
Compound in one test: CC(=O)Nc1cccc(-n2c(=O)n(C3CC3)c(=O)c3c(Nc4ccc(I)cc4F)n(C)c(=O)c(C)c32)c1 [Trametinib]
The note with it: top dose 1 µM. The method, then:
(§1)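 Human cancer cell lines in 384-well plates, medium with 10% serum, drug for 72 h over a 256-fold dose range (nine 2-fold or five 4-fold steps up to the top dose). Adherent lines were fixed and stained with the nucleic acid dye Syto60, suspension lines read with resazurin; signal relative to control wells, capped at 0 and 100%. One two-parameter sigmoid per drug and line, fitted in a mixed model over all curves with the slope shared within a line.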

Compound in a further test: CCN1CCN(Cc2ccc(NC(=O)c3ccc(C)c(/C=C/c4cnc5[nH]ccc5c4OC)c3)cc2C(F)(F)F)CC1 [HG-6-64-1]
The note with it: top dose 5.12 µM; top dose inferred. The method, then:
as §1

Compound in the next test: CCNC(=O)C[C@@H]1N=C(c2ccc(Cl)cc2)c2cc(OC)ccc2-n2c(C)nnc21 [I-BET-762]
The note with it: top dose 20 µM; top dose inferred. The method, then:
as §1

Compound in the next test: CCc1cncnc1N1CCN(Cc2nc3ccc(C(F)(F)F)cc3[nH]2)CC1 [PF-4708671]
The conditions noted are these: top dose 10 µM; top dose inferred. As for the experimental part:
as §1

Compound in another test: COc1cc2nccc(Oc3ccc(NC(=O)Nc4cc(C)on4)c(Cl)c3)c2cc1OC [AV-951]
The note with it: top dose 0.128 µM; top dose inferred. As for the experimental part:
as §1

Compound in another test: Nc1ccccc1NC(=O)c1ccc(CNC(=O)OCc2cccnc2)cc1 [MS-275]
The conditions noted are these: top dose 5 µM; top dose inferred. The method, then:
as §1

Compound in a further test: O=C(NC(COc1ccc2[nH]c(=O)[nH]c2c1)c1ccccc1)c1cccn(Cc2ccc(F)c(F)c2)c1=O [KIN001-244]
The note with it: top dose 20 µM; top dose inferred. The method, then:
as §1

IC50 is the fitted dose that halves viability relative to control wells, and lower means more sensitive; where the fit passes the top or lowest dose, that dose stands as a limit. AUC, from the same fit, is the share of area under the viability curve across the 256-fold dose range; values near 1 show little effect. For part of these data: A top dose marked as inferred was calculated from the reported fits.

A word on the IC50: it is the point on the concentration scale where inhibition reaches its midpoint. Turning to “CCRF-CEM (lymphoblastic leukaemia, suspension)”, the AUC with Trametinib was 0.973; in the test with HG-6-64-1, 0.859; with I-BET-762, 0.601; with PF-4708671, 0.977; with AV-951, 0.989; with MS-275, 0.643. Moreover, the AUC with KIN001-244 worked out at 0.38. Further, the IC50 was over 1000 nM with Trametinib; 3190 nM in the test with HG-6-64-1; 2250 nM in the test with I-BET-762; over 10000 nM with PF-4708671; over 128 nM in the test with AV-951; 721 nM with MS-275. Moreover, in the test with KIN001-244, the IC50 amounted to 620 nM.

With “CESS (acute myeloid leukaemia, suspension)”, the AUC in the test with Trametinib was determined as 0.949; in the test with HG-6-64-1 it was 0.799; in the test with I-BET-762, 0.381; with PF-4708671, 0.978; in the test with AV-951, 0.989; with MS-275, 0.672. In addition, in the test with KIN001-244, the AUC came to 0.39. Also, the IC50 is over 1000 nM with Trametinib; 2070 nM with HG-6-64-1; 620 nM in the test with I-BET-762; over 10000 nM with PF-4708671; over 128 nM with AV-951; 868 nM with MS-275. Further, in the test with KIN001-244, the IC50 was 654 nM.

With CGTH-W-1 (thyroid, adherent), the AUC with Trametinib was determined as 0.382; with HG-6-64-1, 0.122; with I-BET-762 it was 0.953; with PF-4708671, 0.976; with AV-951, 0.902; in the test with MS-275, 0.784. The AUC with KIN001-244 stood at 0.923. The IC50 with Trametinib is 29.7 nM; with HG-6-64-1, under 20 nM; with I-BET-762, over 20000 nM; in the test with PF-4708671 it was over 10000 nM; in the test with AV-951, over 128 nM; with MS-275, 2120 nM. Besides, in the test with KIN001-244, the IC50 was over 20000 nM.

On to CHP-126 (neuroblastoma, suspension), for which the AUC with Trametinib came to 0.985; with HG-6-64-1, 0.913; with I-BET-762 it was 0.922; with PF-4708671, 0.987; in the test with AV-951, 0.985; with MS-275 it was 0.57. Moreover, the AUC with KIN001-244 was 0.889. For the same cell line, the IC50 with Trametinib is over 1000 nM; in the test with HG-6-64-1 it was over 5120 nM; with I-BET-762 it was over 20000 nM; in the test with PF-4708671, over 10000 nM; with AV-951, over 128 nM; in the test with MS-275, 489 nM. The IC50 in the test with KIN001-244 is over 20000 nM.

Take CL-11 (large intestine, adherent): the AUC worked out at 0.164 with Trametinib; 0.962 with HG-6-64-1; 0.965 in the test with I-BET-762; 0.976 with PF-4708671; 0.978 with AV-951; 0.958 in the test with MS-275. Further, in the test with KIN001-244, the AUC came out at 0.953. Moreover, the IC50 in the test with Trametinib was 4.97 nM; with HG-6-64-1 it was over 5120 nM; with I-BET-762 it was over 20000 nM; with PF-4708671 it was over 10000 nM; with AV-951, over 128 nM; in the test with MS-275 it was over 5000 nM. Also, in the test with KIN001-244, the IC50 is over 20000 nM.

As for “CMK (acute myeloid leukaemia, suspension)”, the AUC with Trametinib stood at 0.958; with HG-6-64-1 it was 0.726; with I-BET-762 it was 0.406; in the test with PF-4708671, 0.885; with AV-951 it was 0.99; with MS-275 it was 0.539. Further, the AUC with KIN001-244 turned out to be 0.832. In addition, the IC50 in the test with Trametinib was over 1000 nM; in the test with HG-6-64-1 it was 1240 nM; with I-BET-762, 721 nM; with PF-4708671 it was 8040 nM; with AV-951, over 128 nM; with MS-275 it was 392 nM. For the same cell line, the IC50 with KIN001-244 turned out to be 10100 nM.

As for “COLO-320-HSR (large intestine, suspension)”, the AUC with Trametinib was determined as 0.991; with HG-6-64-1 it was 0.85; with I-BET-762 it was 0.982; in the test with PF-4708671, 0.99; in the test with AV-951 it was 0.989; with MS-275 it was 0.832. The AUC with KIN001-244 turned out to be 0.878. In addition, the IC50 with Trametinib was over 1000 nM; with HG-6-64-1, 3130 nM; with I-BET-762, over 20000 nM; in the test with PF-4708671 it was over 10000 nM; in the test with AV-951, over 128 nM; with MS-275 it was 2630 nM. In addition, in the test with KIN001-244, the IC50 is 15700 nM.

In the case of “COLO-668 (small cell lung carcinoma, adherent)”, the AUC with Trametinib turned out to be 0.956; with HG-6-64-1 it was 0.804; in the test with I-BET-762, 0.914; in the test with PF-4708671, 0.879; in the test with AV-951, 0.971; in the test with MS-275 it was 0.971. Besides, the AUC with KIN001-244 amounted to 0.876. Further, the IC50 is over 1000 nM with Trametinib; 2560 nM with HG-6-64-1; over 20000 nM with I-BET-762; over 10000 nM with PF-4708671; over 128 nM with AV-951; over 5000 nM with MS-275. In addition, in the test with KIN001-244, the IC50 came out at 19900 nM.

Consider COLO-684 (endometrium, suspension), for which the AUC in the test with Trametinib was found to be 0.977; in the test with HG-6-64-1, 0.906; with I-BET-762, 0.906; with PF-4708671 it was 0.982; with AV-951, 0.971; in the test with MS-275, 0.886. Besides, the AUC with KIN001-244 is 0.793. Besides, the IC50 with Trametinib was over 1000 nM; with HG-6-64-1 it was over 5120 nM; with I-BET-762, over 20000 nM; with PF-4708671, over 10000 nM; with AV-951, over 128 nM; with MS-275 it was over 5000 nM. The IC50 with KIN001-244 was 10400 nM.
